Test results as given in the supplement of paper PMC6746778.
This is one part of the list. Repeats are few or missing, and single values can be far off.

Assays:
Test in all cases: proliferation Z-score within cell line (SRB, relative to all inhibitors screened on that line); triple-negative breast cancer lines and a kinase inhibitor library; SRB is the sulforhodamine B protein stain; higher = less growth inhibition (more resistant)
Conditions in all cases: concentration: 1 µM; 4 days
Bt20 = tested on: Bt20
Bt549 = tested on: Bt549
HCC1143 = tested on: HCC1143
HCC1806 = tested on: HCC1806
HCC1937 = tested on: HCC1937
HCC38 = tested on: HCC38
HCC70 = tested on: HCC70
Hs578T = tested on: Hs578T
MDA-MB-231 = tested on: MDA-MB-231
MDA-MB-435s = tested on: MDA-MB-435s
MDA-MB-436 = tested on: MDA-MB-436
MDA-MB-453 = tested on: MDA-MB-453
MDA-MB-468 = tested on: MDA-MB-468
SKBR7 = tested on: SKBR7
SUM1315MO2 = tested on: SUM1315MO2
SUM149PT = tested on: SUM149PT
SUM159PT = tested on: SUM159PT
SUM185PE = tested on: SUM185PE
SUM229PE = tested on: SUM229PE
SUM52PE = tested on: SUM52PE
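Further: Single-dose primary screen of a 378-member kinase inhibitor library in 96-well plates, with growth read as absorbance of protein-bound SRB dye after TCA fixation.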

| Compound | proliferation Z-score within cell line (Bt20) | proliferation Z-score within cell line (Bt549) | proliferation Z-score within cell line (HCC1143) | proliferation Z-score within cell line (HCC1806) | proliferation Z-score within cell line (HCC1937) | proliferation Z-score within cell line (HCC38) | proliferation Z-score within cell line (HCC70) | proliferation Z-score within cell line (Hs578T) | proliferation Z-score within cell line (MDA-MB-231) | proliferation Z-score within cell line (MDA-MB-435s) | proliferation Z-score within cell line (MDA-MB-436) | proliferation Z-score within cell line (MDA-MB-453) | proliferation Z-score within cell line (MDA-MB-468) | proliferation Z-score within cell line (SKBR7) | proliferation Z-score within cell line (SUM1315MO2) | proliferation Z-score within cell line (SUM149PT) | proliferation Z-score within cell line (SUM159PT) | proliferation Z-score within cell line (SUM185PE) | proliferation Z-score within cell line (SUM229PE) | proliferation Z-score within cell line (SUM52PE) |
| --- | --- | --- | --- | --- | --- | --- | --- | --- | --- | --- | --- | --- | --- | --- | --- | --- | --- | --- | --- | --- |
| Cc1cc(Nc2nc(N[C@@H](C)c3ccc(F)cc3)c(C#N)cc2F)n[nH]1 | -2.11 | -1.1 | 0.41 | 0.332 | 0.882 | -2.2 | 0.588 | -1.74 | -1.26 | -1.29 | 0.434 | -1.73 | -1.77 | -2 | -1.87 | -1.46 | 0.353 | -1.1 | -1.27 | -1.4 |
| Cc1[nH]c(/C=C2\C(=O)Nc3ccc(S(=O)(=O)Cc4c(Cl)cccc4Cl)cc32)c(C)c1C(=O)N1CCC[C@@H]1CN1CCCC1 | 0.532 | 0.608 | 0.306 | 0.276 | 0.588 | 0.485 | 0.842 | 0.681 | 0.619 | 0.77 | 0.735 | 1.13 | 1.06 | 1.87 | 0.975 | 0.534 | 0.559 | 0.991 | -0.0706 | 0.905 |
| N#Cc1ccc2[nH]c(O)c(-c3ccc(CN4CCOCC4)cn3)c2c1 | -0.00593 | 0.854 | 1.12 | 0.727 | 0.671 | 0.669 | 0.643 | 0.778 | 0.757 | 0.588 | 0.916 | 0.335 | 0.739 | 0.342 | 0.449 | 0.69 | 0.472 | 0.0279 | -0.178 | -0.272 |
| CC(C)CC(=O)Nc1n[nH]c2c1CN(C(=O)C1CCN(C)CC1)C2(C)C | -0.362 | -1.89 | -0.215 | -1.29 | -0.425 | -0.339 | 0.319 | -2.24 | -1.54 | -1.09 | 0.148 | -1.46 | -1.34 | -2.03 | -0.117 | -1.25 | 0.776 | -0.319 | -0.853 | -0.299 |
| COC(=O)[C@]12CCC(C)(C)C[C@H]1[C@H]1C(=O)C=C3[C@@]4(C)C=C(C#N)C(=O)C(C)(C)[C@@H]4CC[C@@]3(C)[C@]1(C)CC2 [Bardoxolone Methyl] | -2.71 | -1.74 | -0.52 | -2.16 | -2.26 | -0.527 | -0.74 | -1.18 | -2.65 | -2.76 | -2.15 | -1.75 | -2.5 | -1.52 | -2.33 | -3.05 | -1.43 | -2.1 | -3.06 | -2.06 |
| Cc1c(Cn2c(C)nc3c(C(=O)O)cc(N4CCOCC4)cc32)cccc1C(F)(F)F | 0.475 | -0.248 | 0.23 | -0.374 | -0.329 | 0.0539 | -0.835 | 0.33 | 0.792 | 0.413 | -0.187 | 0.419 | 0.0332 | 0.157 | 0.131 | 0.582 | 0.297 | 0.51 | 0.147 | -0.155 |
| O=c1c(O)c(-c2ccc(O)c(O)c2)oc2cc(O)cc(O)c12 [Quercetin] | 0.0438 | 0.55 | 0.457 | 0.906 | 0.495 | 0.204 | 0.343 | 0.421 | 0.535 | 0.4 | 0.0179 | 0.419 | 0.291 | -0.151 | 0.183 | -0.331 | 0.148 | -0.143 | -0.0342 | 0.402 |
| Nc1cccc(-c2cc3c(Oc4cccc(O)c4)ncnc3[nH]2)c1 | 0.802 | 0.749 | 0.98 | -0.0975 | 0.685 | 0.247 | 0.817 | 0.849 | 0.625 | 0.574 | 0.485 | 0.964 | 0.815 | 0.167 | 0.878 | -0.319 | 0.749 | 1.25 | 0.548 | -0.659 |
| CCc1cnn2c(NCc3ccc[n+]([O-])c3)cc(N3CCCC[C@H]3CCO)nc12 | -2.01 | -1.98 | -2.27 | -1.91 | -2.36 | -2.38 | -1.96 | -2.05 | -1.58 | -1.71 | -1.97 | -1.46 | -1.6 | -1.92 | -1.6 | -1.93 | -2.28 | -1.07 | -1.86 | -1.16 |
| Cc1[nH]c(/C=C2\C(=O)Nc3ccc(S(=O)(=O)N(C)c4cccc(Cl)c4)cc32)c(C)c1C(=O)N1CCN(C)CC1 | 0.147 | 0.118 | 0.973 | 0.628 | 0.936 | 0.432 | 0.855 | 0.531 | 0.259 | 1.06 | 0.65 | 0.638 | 0.638 | 0.0157 | 0.0199 | 0.745 | 0.648 | -0.252 | 0.14 | -0.155 |
| COc1cc(Nc2ncc(F)c(Nc3ccc4c(n3)N(COP(=O)(O)O)C(=O)C(C)(C)O4)n2)cc(OC)c1OC [Fostamatinib (R788)] | 0.16 | 0.117 | -0.148 | -0.726 | 0.66 | -0.99 | 0.435 | -0.125 | -0.31 | 0.0694 | 0.701 | 0.596 | 0.0394 | -0.57 | -1.21 | -0.431 | 0.294 | -0.602 | -0.0312 | -1.18 |
| CNc1nc(-c2ccc3c(N)n[nH]c3c2)cc(N2C[C@@H](C(=O)NC3CCCCC3)CC[C@H]2C)n1 | -0.0617 | -0.342 | 0.0134 | 0.563 | -1.07 | 0.34 | -0.987 | -0.817 | -0.186 | -0.52 | -0.0796 | -1.14 | -0.793 | -0.538 | -0.331 | 0.28 | -0.0653 | -1.59 | 0.287 | -0.962 |
| N#CC(=C(/N)Sc1ccccc1N)/C(C#N)=C(\N)Sc1ccccc1N | 0.874 | 0.703 | -1.04 | 0.713 | 0.486 | 0.417 | 0.00419 | 0.502 | 0.545 | 0.507 | -0.0725 | 0.407 | 0.462 | 1.6 | 0.572 | 0.796 | 0.404 | 0.0111 | 0.387 | 0.931 |
